{"source": "PubChem BioAssay AID1346428", "about": "(National Center for Advancing Translational Sciences (NCATS), 2018)", "note": "The whole screen tested about 48,000 compounds, of which about 1,200 (2.5%) were called active. Roughly 2% stayed inconclusive and do not appear here.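 How the source made its calls: active means activation of at least 60% and not above a set upper limit (about 1 call in 100 departs from these limits); inconclusive means activation of 40% to 60%, or above that upper limit; inactive means activation under 40%.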 The list shows a part of the results.", "data": [{"target": "Probable G-protein coupled receptor 32 (Homo sapiens) (UniProt O75388)", "sequence (O75388 whole entry, looked up)": "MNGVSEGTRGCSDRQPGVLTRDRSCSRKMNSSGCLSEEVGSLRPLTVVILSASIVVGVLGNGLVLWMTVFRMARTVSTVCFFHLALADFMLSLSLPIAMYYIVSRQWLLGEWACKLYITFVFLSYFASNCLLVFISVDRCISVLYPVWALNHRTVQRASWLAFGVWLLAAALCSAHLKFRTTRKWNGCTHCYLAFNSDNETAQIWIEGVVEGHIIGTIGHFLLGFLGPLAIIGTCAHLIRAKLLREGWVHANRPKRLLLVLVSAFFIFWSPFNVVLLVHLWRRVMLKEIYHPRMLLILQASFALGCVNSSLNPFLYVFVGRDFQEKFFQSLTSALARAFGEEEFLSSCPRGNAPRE", "assay": "qHTS for Agonists of Human Resolvin D1 Receptor DRV1; further: 0% is about no effect", "conditions": "CHO-K1 GPR32 beta-arrestin PathHunter luminescence, 90 min; at 76.9 µM; hits give high values; zero percent set by DMSO-only wells", "outline": "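Readings come from a cell-based beta-arrestin complementation format: CHO-K1 GPR32 stable cells (2,500/well) treated 90 min with compounds, then beta-Gal substrate added for 1 h before chemiluminescence imaging.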", "values": [{"compound": "Cc1cc2c(n1-c1ccc(C(=O)NCc3cccc(Br)c3)cc1)CCC(C)C2", "note": "(centres undefined)", "activation": "inactive: -16.2%"}, {"compound": "CCOc1ccc(C(=O)Nc2c(C)nc(Nc3ccccc3)nc2Nc2ccccc2)cc1OCC", "activation": "inactive: -4.84%"}, {"compound": "COc1ccc(S(=O)(=O)Nc2c(C)n(C)n(-c3ccccc3)c2=O)cc1Br", "activation": "inactive: -12.2%"}, {"compound": "COc1ccc(C(=O)Cn2c(=O)n3nc(CCn4nc(C)cc4C)nc3c3cc(OC)c(OC)cc32)cc1", "activation": "inactive: 1.82%"}, {"compound": "CC(C)Nc1cc(N2CCN(C3CCCCC3)CC2)c2noc3c2c1C(=O)c1ccccc1-3", "activation": "inactive: -5.35%"}, {"compound": "COc1ccc(CCNc2nc(-c3ccccc3OC)cc(C(F)(F)F)n2)cc1OC", "activation": "inactive: 22.1%"}, {"compound": "COc1ccccc1N1CCN(C(=O)CSc2nc(C)cc(=O)[nH]2)CC1", "activation": "inactive: -4.75%"}, {"compound": "CCOc1ccccc1CNC(=O)C1=C(C)C(=O)OC12CCN(C(C)=O)CC2", "activation": "inactive: -6.06%"}, {"compound": "O=C(c1ccc(Br)cc1)N1CCC(c2nc3ccccc3s2)CC1", "activation": "inactive: 42.5%"}, {"compound": "CCOc1ccc(CNC(=O)C(C)n2ncn3cccc3c2=O)cc1", "note": "(centres undefined)", "activation": "inactive: 2.54%"}, {"compound": "CCOC(=O)c1[nH]c(C)c(CCC(=O)Nc2ccc(C)cc2Cl)c1C", "activation": "inactive: 0.479%"}, {"compound": "COc1cccc(C(=O)Nc2nc3nc(C)c(Cc4ccccc4)c(=O)n3[nH]2)c1", "activation": "inactive: 15.2%"}, {"compound": "Cc1cccc(N2C(=O)C(CC(=O)Nc3ccccc3)N(C3CCCCC3)C2=O)c1", "note": "(centres undefined)", "activation": "inactive: -19.5%"}, {"compound": "CCOC(=O)c1c(C)[nH]c(C)c1S(=O)(=O)N(C)CC(=O)N1CCN(c2cccc(C)c2C)CC1", "activation": "inactive: 8.48%"}, {"compound": "Cn1c(=O)c2[nH]c(Br)nc2n(C)c1=O", "activation": "inactive: -2.47%"}, {"compound": "COC(=O)c1ccc(NC(=O)CC2C(=O)N(c3cccc(C)c3)C(=O)N2Cc2ccco2)cc1", "note": "(centres undefined)", "activation": "inactive: -24%"}, {"compound": "CCOC(=O)c1c(C)oc2nc(C)nc(NCCCN3CCN(c4ccccc4OC)CC3)c12", "activation": "inactive: -8.44%"}, {"compound": "Cc1nn(C)c2c1c(-c1ccccc1)cc(=O)n2Cc1ccc(Br)cc1F", "activation": "inactive: -6.89%"}, {"compound": "COc1ccccc1C(=O)Nc1ccccc1C(=O)OCc1cc(=O)n2c(C)csc2n1", "activation": "inactive: -7.59%"}, {"compound": "Cc1ccc(OCC(=O)N(Cc2ccc(N(C)C)cc2)CC2CCCO2)cc1C", "note": "(centres undefined)", "activation": "inactive: -11.4%"}, {"compound": "CCCCOc1ccc(NC(=O)c2cc3c(n(-c4ccc(Cl)cc4)c2=O)CCCC3=O)cc1", "activation": "inactive: 1.9%"}, {"compound": "Cc1ccc(CNC(=O)CCCn2c(=O)c3ccccc3n(Cc3ccccc3Cl)c2=O)cc1", "activation": "inactive: -8.34%"}, {"compound": "CCCC(=O)c1cc2c(cc1NC(=O)c1ccccc1F)OCCO2", "activation": "inactive: -11.5%"}, {"compound": "COc1ccc(-c2cc(C(F)(F)F)nc(SCC(=O)N3CCCCC3)n2)cc1", "activation": "inactive: 1.41%"}, {"compound": "O=C(c1cccc([N+](=O)[O-])c1)N1c2nc(-c3ccco3)nn2C2(CCCCC2)[C@@H]2CCCC[C@@H]21", "activation": "inactive: -32.3%"}, {"compound": "O=C(Cn1c(=O)n(CCCS(=O)(=O)C2CCCCC2)c(=O)c2ccccc21)Nc1ccccc1F", "activation": "inactive: -20.4%"}, {"compound": "Cc1nn2c3c(cnc2c1-c1ccc(F)cc1)C(=O)CC(c1ccccc1)C3", "note": "(centres undefined)", "activation": "inactive: -5.68%"}, {"compound": "Cc1cc(C(=O)Nc2cccc(C(F)(F)F)c2)c2c(C)nn(-c3cccc(F)c3)c2n1", "activation": "inactive: 10%"}, {"compound": "COc1cccc(CNC(=O)C2CCCN(S(=O)(=O)c3ccc4c(ccn4C)c3)C2)c1OC", "note": "(centres undefined)", "activation": "inactive: 4.41%"}, {"compound": "CCCN1CCN(CCNC(=O)Nc2cc(Cl)c(OC)cc2OC)CC1", "activation": "inactive: 10.5%"}, {"compound": "Cc1cc(C)c(-c2csc(-c3cc4ccccc4oc3=O)n2)cc1C", "activation": "inactive: -4.05%"}, {"compound": "O=S(=O)(NCCc1csc2nc(-c3ccc(F)cc3)nn12)c1ccc2c(c1)OCCO2", "activation": "inactive: 11.6%"}, {"compound": "CC(=O)Nc1ccc(NC(=O)CC(C)n2ccc(C)n2)cc1", "note": "(centres undefined)", "activation": "inactive: 1.42%"}, {"compound": "COc1ccc(-c2cc(C(=O)Oc3ccc(C#N)cc3)no2)cc1", "activation": "inactive: -7.44%"}, {"compound": "COc1ccc(CNC(=O)C(CC(C)C)NS(=O)(=O)c2ccc3c(c2)CCN3C(C)=O)cc1", "note": "(centres undefined)", "activation": "inactive: 22.3%"}, {"compound": "O=C(NCCOCCn1c(=O)oc2ccccc21)Nc1ccc(F)cc1F", "activation": "inactive: 24.4%"}, {"compound": "COc1ccc(Nc2nnc(-n3nc(C)cc3C)c3ccccc23)cc1", "activation": "inactive: 0.996%"}, {"compound": "CNC(=O)c1c(I)c(NC(=O)CCCCC(=O)Nc2c(I)c(C(=O)O)c(I)c(C(=O)NC)c2I)c(I)c(C(=O)O)c1I", "activation": "inactive: 5.06%"}, {"compound": "CCCc1cc(=O)[nH]c(SCc2nc(-c3ccccc3)no2)n1", "activation": "inactive: -9.96%"}, {"compound": "O=S1(=O)c2ccccc2N(Cc2ccc(F)cc2)c2ccccc21", "activation": "inactive: -19.3%"}, {"compound": "CCCSCCCNC(=O)c1sc2nc(C)cc(C)c2c1-n1cccc1", "activation": "inactive: 0.876%"}, {"compound": "COc1cccc(NCc2nnc3n2CCCCC3)c1", "activation": "inactive: 9.18%"}, {"compound": "Cc1ccc(-c2noc(-c3cccnc3N(C)Cc3ccc(Cl)cc3)n2)cc1", "activation": "inactive: -15.7%"}, {"compound": "COc1cc(Br)cc2cc(S(=O)(=O)c3ccccc3)c(=O)oc12", "activation": "inactive: -4.99%"}, {"compound": "COc1ccc(CNC(=O)c2cc3c(=O)n(Cc4ccc(OC)cc4)ccc3nc2C)cc1", "activation": "inactive: -10.8%"}, {"compound": "Cc1cccc(NC(=O)CSc2nc3ccc(NC(=O)CCc4ccccc4)cc3s2)c1", "activation": "inactive: 29.9%"}, {"compound": "Cc1ccc(-c2nc(CS(=O)(=O)CC(=O)N3CCN(c4ccccc4)CC3)c(C)o2)cc1", "activation": "inactive: 16.9%"}, {"compound": "CCOc1ccc(NC(=O)CN(c2ccc(C)cc2)S(=O)(=O)c2cccs2)cc1", "activation": "inactive: -9.92%"}, {"compound": "CCCOc1ccc(CN2C(=O)C(=O)c3cccc(C)c32)cc1", "activation": "inactive: -59.4%"}, {"compound": "COc1ccc(-c2nc3ccccc3s2)cc1NC(=O)c1cccc(F)c1", "activation": "inactive: -9.64%"}, {"compound": "Cc1ccc(-n2nc(C)c3c(C)c(CCC(=O)NCc4ccc(Cl)cc4)c(C)nc32)cc1", "activation": "inactive: -18.7%"}, {"compound": "CCc1cccc(C)c1Nc1c(-c2ccc(N(C)C)cc2)nc2cnccn12", "activation": "active: 92.5%"}, {"compound": "COc1cccc(CNC(=O)c2ccc3nc(CCc4ccccc4)oc3c2)c1OC", "activation": "inactive: 31.2%"}, {"compound": "CCOc1ccc(CNCCSc2nnnn2C)cc1", "activation": "inactive: -7.89%"}]}]}
